The entries are a selection whose mix differs from that of the whole data set. The list includes weakly bound sequences.
What was measured:
Assay in all cases: protein-binding microarray (PBM)
Conditions in all cases: PBM: ~300 nM protein, 6 mM HEPES pH 7.8, 80 mM KCl, 0.5 mM EDTA, 0.5 mM EGTA, 6% glycerol, 35 ng/ul poly-dIdC, 1% milk, 1 h, room temperature; Ap Aiptasia and Nv Nematostella (sea anemones) / Co Capsaspora / Aq Amphimedon (sponge) / Dm Drosophila / Hu human; RHD is the Rel homology domain; high values mean tight binding; most listed sequences are background and not binding sites; double strand, one strand shown
[1] = target: T1, GST-Nv-NF-kB (Cys allele) (UniProt E5G601)
T1 sequence: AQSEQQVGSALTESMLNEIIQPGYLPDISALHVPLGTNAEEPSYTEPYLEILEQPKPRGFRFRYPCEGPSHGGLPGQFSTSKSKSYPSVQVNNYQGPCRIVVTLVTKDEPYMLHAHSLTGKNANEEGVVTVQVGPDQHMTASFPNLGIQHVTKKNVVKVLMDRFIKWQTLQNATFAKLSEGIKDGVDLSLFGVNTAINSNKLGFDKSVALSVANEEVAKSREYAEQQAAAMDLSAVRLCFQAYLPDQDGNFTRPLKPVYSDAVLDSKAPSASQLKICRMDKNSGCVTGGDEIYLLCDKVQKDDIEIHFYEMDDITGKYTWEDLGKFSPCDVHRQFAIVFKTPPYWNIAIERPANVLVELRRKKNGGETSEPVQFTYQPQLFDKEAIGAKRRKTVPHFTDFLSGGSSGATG

GST-Dm-Relish = target: T2, GST-Dm-Relish (UniProt Q94527)
T2 sequence: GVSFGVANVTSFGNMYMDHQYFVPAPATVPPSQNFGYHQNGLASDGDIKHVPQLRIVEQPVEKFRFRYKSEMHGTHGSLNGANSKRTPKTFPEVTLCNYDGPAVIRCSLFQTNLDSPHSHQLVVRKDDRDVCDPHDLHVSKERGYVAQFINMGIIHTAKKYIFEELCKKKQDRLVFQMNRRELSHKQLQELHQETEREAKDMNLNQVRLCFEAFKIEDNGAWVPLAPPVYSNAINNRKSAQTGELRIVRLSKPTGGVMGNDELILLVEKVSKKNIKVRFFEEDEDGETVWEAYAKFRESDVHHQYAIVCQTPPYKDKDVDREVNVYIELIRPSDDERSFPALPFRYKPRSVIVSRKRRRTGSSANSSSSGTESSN

GST-Aq-NF-kB = target: T3, GST-Aq-NF-kB (UniProt A9Y5G7)
T3 sequence: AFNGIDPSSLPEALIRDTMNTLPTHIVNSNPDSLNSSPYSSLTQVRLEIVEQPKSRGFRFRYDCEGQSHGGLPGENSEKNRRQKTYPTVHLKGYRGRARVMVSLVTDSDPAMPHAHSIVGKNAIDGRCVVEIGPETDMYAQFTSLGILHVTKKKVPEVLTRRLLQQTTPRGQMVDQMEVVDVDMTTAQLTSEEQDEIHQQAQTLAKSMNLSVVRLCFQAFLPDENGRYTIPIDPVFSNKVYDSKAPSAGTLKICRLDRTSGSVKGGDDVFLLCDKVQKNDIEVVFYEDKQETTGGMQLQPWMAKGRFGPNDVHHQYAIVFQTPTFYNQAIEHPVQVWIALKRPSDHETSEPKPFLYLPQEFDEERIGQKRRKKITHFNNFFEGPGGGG

GST-Co-NF-kB = target: T4, GST-Co-NF-kB (UniProt F1ARL5)
T4 sequence: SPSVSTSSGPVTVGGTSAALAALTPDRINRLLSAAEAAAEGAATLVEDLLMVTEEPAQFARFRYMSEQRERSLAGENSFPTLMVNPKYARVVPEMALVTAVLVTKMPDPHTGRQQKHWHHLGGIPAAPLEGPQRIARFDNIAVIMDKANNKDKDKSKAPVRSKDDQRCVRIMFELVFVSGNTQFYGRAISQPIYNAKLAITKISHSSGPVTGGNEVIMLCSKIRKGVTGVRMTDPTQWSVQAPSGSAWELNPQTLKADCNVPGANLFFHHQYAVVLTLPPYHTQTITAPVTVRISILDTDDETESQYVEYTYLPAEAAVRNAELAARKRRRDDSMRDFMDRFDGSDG

Row | Sequence | binding signal [1] [z-score] | binding signal (GST-Dm-Relish) [z-score] | binding signal (GST-Aq-NF-kB) [z-score] | binding signal (GST-Co-NF-kB) [z-score]
1 | CCGATTAACATCACCCGGCGCAGTGATGTTAATCGGGTCTTGATTCGCTTGACGCTGCTG | -0.0701 | 0.799 | 0.573 | –
2 | CCGATTAACATCACGTTTCCCCCTGATGTTAATCGGGTCTTGATTCGCTTGACGCTGCTG | – | – | 5.17 | 9.58
3 | CCGATTAACATCAGGGGGTTAACTGATGTTAATCGGGTCTTGATTCGCTTGACGCTGCTG | – | – | 5.06 | 2.64
4 | CCGATTAACATCACTAAATCCCCTGATGTTAATCGGGTCTTGATTCGCTTGACGCTGCTG | 7.06 | 6.49 | 5.34 | –
5 | CCGATTAACATCAGCTATTTCCCTGATGTTAATCGGGTCTTGATTCGCTTGACGCTGCTG | 3.01 | 0.198 | 3.31 | –
6 | CCGATTAACATCAGGAAAACCCATGATGTTAATCGGGTCTTGATTCGCTTGACGCTGCTG | – | – | 4.02 | 0.414
7 | CCGATTAACATCAGGGGTATACCTGATGTTAATCGGGTCTTGATTCGCTTGACGCTGCTG | – | – | 4.94 | 3.98
8 | CCGATTAACATCAAGGGGGATCCTGATGTTAATCGGGTCTTGATTCGCTTGACGCTGCTG | 6.38 | 8.84 | 6.34 | –
9 | CCGATTAACATCAGGGGATATACTGATGTTAATCGGGTCTTGATTCGCTTGACGCTGCTG | 4.91 | 7.81 | 4.48 | –
10 | CCGATTAACATCAGGGGAAACGATGATGTTAATCGGGTCTTGATTCGCTTGACGCTGCTG | – | – | 3.92 | 6.65
11 | CCGATTAACATCACCGGGGATAGTGATGTTAATCGGGTCTTGATTCGCTTGACGCTGCTG | – | – | 1.82 | 3.83
12 | CCGATTAACATCAGACAATTCCCTGATGTTAATCGGGTCTTGATTCGCTTGACGCTGCTG | – | – | 4.77 | 2.28
13 | CCGATTAACATCACGGGACTTCCTGATGTTAATCGGGTCTTGATTCGCTTGACGCTGCTG | – | – | 6.21 | 0.0562
14 | CCGATTAACATCAGGAGTTCCCATGATGTTAATCGGGTCTTGATTCGCTTGACGCTGCTG | – | – | 3.51 | 1.68
15 | CCGATTAACATCAGGATTGTCCCTGATGTTAATCGGGTCTTGATTCGCTTGACGCTGCTG | – | – | 5.51 | 1.06
16 | CCGATTAACATCAGGGAAACAAATGATGTTAATCGGGTCTTGATTCGCTTGACGCTGCTG | 3.05 | 0.99 | 3.12 | –
17 | CCGATTAACATCAAATTCTCCCCTGATGTTAATCGGGTCTTGATTCGCTTGACGCTGCTG | – | – | 5.21 | 8.72

Row | Sequence | binding signal [1] [z-score] | binding signal (GST-Dm-Relish) [z-score] | binding signal (GST-Aq-NF-kB) [z-score] | binding signal (GST-Co-NF-kB) [z-score]
18 | CCGATTAACATCAGAAAATCACCTGATGTTAATCGGGTCTTGATTCGCTTGACGCTGCTG | – | – | 3.39 | 0.765
19 | CCGATTAACATCAATTTTCCCCATGATGTTAATCGGGTCTTGATTCGCTTGACGCTGCTG | – | – | 5.53 | 9.2
20 | CCGATTAACATCAGGGACTTACCTGATGTTAATCGGGTCTTGATTCGCTTGACGCTGCTG | – | – | 8.29 | 0.529
21 | CCGATTAACATCAAATTCCCAAATGATGTTAATCGGGTCTTGATTCGCTTGACGCTGCTG | – | – | 2.31 | 2.55
22 | CCGATTAACATCAATCTTTCCCCTGATGTTAATCGGGTCTTGATTCGCTTGACGCTGCTG | – | – | 5.91 | 8.32
23 | CCGATTAACATCAATAAATTCCCTGATGTTAATCGGGTCTTGATTCGCTTGACGCTGCTG | – | – | 5.34 | 4.25
24 | CCGATTAACATCAATTTTTTCCCTGATGTTAATCGGGTCTTGATTCGCTTGACGCTGCTG | 5.88 | 2.71 | 4.16 | –
25 | CCGATTAACATCAGGGGAGTAAATGATGTTAATCGGGTCTTGATTCGCTTGACGCTGCTG | – | – | 3 | 4.51
26 | CCGATTAACATCACCCCTCCCCCTGATGTTAATCGGGTCTTGATTCGCTTGACGCTGCTG | – | – | 4.12 | 4.73
27 | CCGATTAACATCAGGATAGTCCCTGATGTTAATCGGGTCTTGATTCGCTTGACGCTGCTG | – | – | 6.61 | 0.801
28 | CCGATTAACATCAAGGGGTTCCCTGATGTTAATCGGGTCTTGATTCGCTTGACGCTGCTG | 3.32 | 9.46 | 5.11 | –
29 | CCGATTAACATCACGGGACCCCCTGATGTTAATCGGGTCTTGATTCGCTTGACGCTGCTG | – | – | 3.7 | 1.75
30 | CCGATTAACATCAGGGCATCCCCTGATGTTAATCGGGTCTTGATTCGCTTGACGCTGCTG | – | – | 8.18 | 2.46
31 | CCGATTAACATCACGGGGAATTATGATGTTAATCGGGTCTTGATTCGCTTGACGCTGCTG | – | – | 6.42 | 8.2
32 | CCGATTAACATCAGGGGATTAGATGATGTTAATCGGGTCTTGATTCGCTTGACGCTGCTG | – | – | 3.91 | 2.75
33 | CCGATTAACATCACCCCTCCCCATGATGTTAATCGGGTCTTGATTCGCTTGACGCTGCTG | – | – | 2.92 | 3.58
